Measured values published in PubChem BioAssay AID1476 (National Center for Advancing Translational Sciences (NCATS), 2009).
Several values for one entry are separate records, joined by “and”; a condition that tells them apart may be missing. Equal values may be shown once. Out of some 200,000 compounds screened, about 4,500 (2.2%) were called active. The inconclusive results got no clear call from the source; some entries with a clear call stand among them for comparison. The call rests on the fitted dose curve; in most records, active means well fitted inhibition curve with a large enough effect; inconclusive means small, poorly fitted or top-dose-only effect, or effect the other way; inactive means flat fitted curve, though single readings scatter. A potency beside an inconclusive call is a rough fit, not a confirmed value.

molecular target: Cruzipain (Trypanosoma cruzi) (UniProt P25779); assay: qHTS Assay for Promiscuous and Specific Inhibitors of Cruzain (without detergent); settings: purified cruzain, Z-FR-AMC fluorescence, no detergent; further: nearly all actives have a fitted effect of over 40% in size;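 on max response, negative = inhibition: plate controls were enzyme without inhibitor for no effect and buffer without enzyme for full effect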
How it was run: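 Purified cruzain at 1.5 nM, pre-incubated 15 min with compound at room temperature in 100 mM sodium acetate pH 5.5, 5 mM DTT, 0.00005% Triton X-100. Reaction started with 2 uM Z-FR-AMC; AMC fluorescence increase over 60 s gives rate.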
Potency means the concentration at half of the fitted maximal effect; tags describe the fitted curve by direction and shape.

UniProt P25779, sequence (P25779 whole entry, looked up): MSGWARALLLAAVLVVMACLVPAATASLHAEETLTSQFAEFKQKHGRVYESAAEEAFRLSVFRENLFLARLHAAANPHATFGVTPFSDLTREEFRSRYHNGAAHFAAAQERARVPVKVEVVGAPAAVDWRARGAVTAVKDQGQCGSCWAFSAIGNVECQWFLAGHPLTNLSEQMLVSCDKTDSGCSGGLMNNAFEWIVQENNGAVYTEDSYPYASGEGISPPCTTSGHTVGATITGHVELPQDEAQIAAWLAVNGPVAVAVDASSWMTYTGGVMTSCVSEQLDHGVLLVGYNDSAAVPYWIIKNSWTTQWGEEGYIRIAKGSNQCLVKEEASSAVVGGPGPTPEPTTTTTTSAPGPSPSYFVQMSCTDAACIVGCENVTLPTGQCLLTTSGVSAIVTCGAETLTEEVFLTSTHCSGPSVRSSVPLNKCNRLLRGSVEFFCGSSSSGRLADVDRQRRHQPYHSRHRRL

Row | SMILES | Potency | max response, negative = inhibition
1 | CCC(CC)C(=O)Nc1nnc(SCC(=O)N2CCN(c3ccccc3OC)CC2)s1 | inconclusive: 25.1 µM [activator, single point] | –
2 | COc1ccc2c(c1)c(CC(=O)N1CCOCC1)c(C)n2C(=O)c1ccc(Cl)cc1 | inconclusive: 31.6 µM [activator, single point] and inconclusive: 20 µM [activator, partial curve] | –
3 | COc1ccc(C(CC(=O)Nc2ccc(C)cn2)N2Cc3ccccc3C2=O)cc1OC (stereo not drawn) | – | inactive: -5.58%
4 | COc1ccc(S(=O)(=O)N(CC(=O)N2CCN(c3ccccc3)CC2)c2ccccc2)cc1 | inconclusive: 39.8 µM [activator, single point] | –
5 | CC(OC(=O)CNS(=O)(=O)/C=C/c1ccccc1)C(=O)Nc1ccc(S(=O)(=O)N2CCCC2)cc1 (stereo not drawn) | inconclusive: 25.1 µM [inhibitor, single point] | –
6 | Cc1nnc(Sc2c(-c3ccccc3)c3ccc(Cl)cc3[nH]c2=O)s1 | inconclusive: 39.8 µM [activator, single point] | –
7 | O=C(CSc1nnc(COc2ccc(Cl)cc2)o1)Nc1ccccc1 | inconclusive: 39.8 µM [activator, single point] | –
8 | Cc1nn(C)c(C)c1CNC(=O)c1cc2n(n1)C(C(F)(F)F)CC(c1cccs1)N2 (stereo not drawn) | inconclusive: 39.8 µM [activator, single point] | –
9 | N#C/C(=C\c1cn(CCOc2ccccc2)c2ccccc12)C(=O)NCc1ccco1 | – | inactive: 0.666%
10 | CCOC(=O)c1c(S(=O)(=O)N2CCC(C(=O)N3CCN(c4cccc(C)c4C)CC3)CC2)c(C)n(C)c1C | inconclusive: 12.6 µM [activator, partial curve] | –
11 | CCN(CC)C(=O)C1=C(C)Nc2nc3ccccc3n2C1c1ccc(Br)cc1 (stereo not drawn) | – | inactive: 11.6%
12 | O=C(O)CCCC/C=C\C[C@@H](O)/C=C/C=C/C=C\[C@@H](O)CCCC(=O)O | active: 3.98 µM | –
13 | Cc1c(NC(=O)/C(C#N)=C/c2ccc(-c3ccc(Cl)cc3)o2)c(=O)n(-c2ccccc2)n1C | inconclusive: 31.6 µM [activator, single point] | –
14 | CCOc1ccc(-n2c(SCC(=O)Nc3ccc4c(c3)OCO4)nc3ccccc3c2=O)cc1 | inconclusive: 31.6 µM [inhibitor, single point] | –
15 | COc1ccc(C(=O)N2CCc3cc(OC)c(OC)cc3C2c2cccc([N+](=O)[O-])c2)cc1OC (stereo not drawn) | inconclusive: 39.8 µM [activator, single point] | –
16 | Cc1ccc(-c2[nH]nc3c2C(c2ccc(OC(=O)N4CCOCC4)cc2)C(C#N)=C(N)O3)cc1 (stereo not drawn) | inconclusive: 39.8 µM [activator, single point] | –
17 | COc1ccc(-n2nc(C(=O)NCCc3ccc(Cl)cc3)c3c4ccccc4n(C)c3c2=O)cc1Cl | – | inactive: -5.4%
18 | N#C/C(=C\c1ccc(Oc2ccc(C(F)(F)F)cc2[N+](=O)[O-])cc1)c1nc2ccccc2[nH]1 | inconclusive: 7.94 µM [inhibitor, full curve, poor fit] | –
19 | Cc1cc(OCC(=O)N(C)C)c2c(-c3ccccc3)cc(=O)oc2c1 | – | inactive: -5.57%

Row | SMILES | Potency | max response, negative = inhibition
20 | CCc1cccc(CC)c1-n1c(SCC(=O)c2c(N)n(C)c(=O)n(C)c2=O)nnc1-c1cccnc1 | inconclusive: 39.8 µM [inhibitor, single point] | –
21 | CCOc1cccc2sc(N(Cc3cccnc3)C(=O)C3CCCCC3)nc12 | inconclusive: 31.6 µM [activator, single point] | –
22 | Cc1c(C(=O)N2CCN(c3ccccn3)CC2)sc2ncnc(N3CCOCC3)c12 | – | inactive: -0.668%
23 | Cc1cccc(NC(=O)Cn2c(=O)n3nc(CCn4nc(C)cc4C)nc3c3ccccc32)c1 | inconclusive: 39.8 µM [activator, single point] | –
24 | CCOC(=O)Cn1c(=NC(=O)c2sc3ccccc3c2Cl)sc2cc(S(N)(=O)=O)ccc21 | active: 7.94 µM | –
25 | CCOc1cc(C(=O)Nc2cc(C)ccc2OC)ccc1OCC(=O)N1CCCCC1 | inconclusive: 31.6 µM [activator, single point] | –
26 | COc1ccc(NC(=O)C2CCCN(C(=O)c3cnn(-c4ccc(F)cc4)c3-n3cccc3)C2)cc1 (stereo not drawn) | inconclusive: 31.6 µM [activator, single point] | –
27 | O=C(N/N=C\c1cn(-c2ccccc2)nc1-c1ccccc1)c1ccc2c(c1)OCO2 | active: 20 µM | –
28 | COc1ccc(-c2cc(C(=O)Oc3cccc(C)c3)c3ccccc3n2)cc1 | inconclusive: 25.1 µM [inhibitor, single point] | –
29 | CC(C)Cc1nc(N2CCC(C(N)=O)CC2)c2nnn(Cc3ccccc3)c2n1 | inconclusive: 39.8 µM [inhibitor, single point] | –
30 | Cc1ccc2ncc(C(=O)NCc3ccccc3Cl)c(=O)n2c1 | – | inactive: 1.63%
31 | O=C(CSc1nnnn1-c1ccc(Cl)cc1)NNC(=O)c1ccc([N+](=O)[O-])cc1 | inconclusive: 39.8 µM [inhibitor, single point] | –
32 | COc1ccc(C(N)CCc2ccc(C)o2)cc1 (stereo not drawn) | inconclusive: 39.8 µM [inhibitor, single point] | –
33 | O=C(c1ccccc1)N1CCN(C(=O)c2ccc([N+](=O)[O-])cc2)CC1 | – | inactive: -5.34%
34 | Cc1ccc(C(=O)OCC(=O)c2c(N)n(C)c(=O)n(C)c2=O)cc1S(=O)(=O)N1CCCCC1 | inconclusive: 31.6 µM [activator, single point] | –
35 | COc1ccc(CCn2nnnc2C(C(C)C)N2CCN(c3ncccn3)CC2)cc1OC (stereo not drawn) | inconclusive: 25.1 µM [activator, partial curve] | –
36 | COc1cc2c(=O)n(-c3ccc(C)cc3)c(=O)n(CC(=O)c3ccc4c(c3)OCO4)c2cc1OC | inconclusive: 31.6 µM [activator, single point] | –
37 | COc1cc(OC)cc(C(=O)Nc2ccc(-c3nc4ccccc4o3)c(O)c2)c1 | inconclusive: 39.8 µM [inhibitor, single point] | –
38 | CCOC(=O)c1c(-c2ccccc2)oc2ccc(NS(=O)(=O)c3ccc(OC)cc3)cc12 | inconclusive: 39.8 µM [inhibitor, single point] | –
